# According to PubChem BioAssay AID624296 (National Center for Advancing Translational Sciences (NCATS), 2012):
# Hit rate of the full screen: of about 350,000 compounds, about 9,900 (2.8%) were called active. Inconclusive results, whose numbers are uncertain, are shown with a selection of clear calls. Calls follow the shape of the dose curve; as a rule, active = well fitted activation curve with a large enough effect; inconclusive = small, poorly fitted or top-dose-only effect; inactive = no such curve, though single readings can be large or run the other way. Potencies of inconclusive entries are left out as doubtful fits.
# Experiment: A quantitative high throughput screen for small molecules that induce DNA re-replication in MCF 10a normal breast cells. Also: nearly all actives have a fitted effect of over 50% in size. As to activity, positive = re-replication: % of control where 0% means no effect.
# Conditions: MCF 10A DNA re-replication, Hoechst nuclear intensity, 48 h; activity, positive = re-replication: at 46.1 µM (top of the series)
# Potency is read from the fitted curve at half-maximal effect; tags tell the direction and shape of the fitted curve.
Structure (SMILES),Potency,"activity, positive = re-replication"
CCOC(=O)C1=C(CSc2nc3c(cc2C#N)CN(C)CC3)OC(N)=C(C#N)C1c1ccc(F)cc1 (centres undefined),"inconclusive [activator, single point]",
O=C(O)c1cccc(COc2ccc3c(c2)CCC3)c1,,inactive: -0.677%
CC(=O)Nc1ccc(C2=NN(c3ccccc3)C(c3ccccc3)C2)cc1 (centres undefined),"inconclusive [activator, full curve, poor fit]",
COc1ccc(-c2c[n+]3c4n2CCCCC4=C(c2ccccc2)C3)cc1,"inconclusive [activator, single point]",
COC(=O)c1ccccc1C(=O)c1cccc2ccccc12,"inconclusive [activator, single point]",
Cc1noc(C)c1CSCC(=O)Oc1ccc(N(C)S(=O)(=O)c2ccccc2)cc1,,inactive: 6.64%
O=C(NCCN1C(=O)S/C(=C\c2ccc(OC(F)F)cc2)C1=O)c1cnccn1,active: 5.8 µM,
Cc1ccc(CN(C(=O)C(F)(F)F)C(C(=O)NC2CCCCC2)c2ccco2)cc1 (centres undefined),"inconclusive [activator, partial curve, poor fit]",
CC(Nc1cc(N2CCN(C(=O)C(C)(C)C)CC2)ccc1[N+](=O)[O-])c1ccccc1 (centres undefined),,inactive: 17.8%
O=C(N/N=C/c1ccc(O)cc1)c1cc(-c2ccc3c(c2)OCO3)n[nH]1,"inconclusive [activator, full curve, poor fit]",
COc1ccc(C(CNC(=O)c2cccc(Br)c2)N2CCCC2)cc1 (centres undefined),"inconclusive [activator, partial curve, poor fit]",
CC[C@@H](C)[C@H](CNC)NC[C@@H](Cc1cccc2ccccc12)NCCc1cccc(C(F)(F)F)c1,"inconclusive [activator, single point]",
CCOC(=O)C1(CCCc2ccccc2)CCN(C(=O)CCC2=NNC(=O)CC2)CC1,,inactive: -4.7%
C(=C\c1ccccc1)/CSc1nnc(-c2ccncc2)n1Cc1ccco1,,inactive: 2.04%
CC(C)COc1ccc(Cc2cnc(N)nc2N)cc1,"inconclusive [activator, single point]",
CCN(CC)C(=O)N1CCN(C)CC1,"inconclusive [activator, partial curve, poor fit]",
CC(C)C(=O)N1CCN(c2ccc(NC(=O)c3ccc([N+](=O)[O-])o3)cc2)CC1,active: 2.59 µM,
c1ccc2c(CCNc3ncnc4nc[nH]c34)cccc2c1,"inconclusive [activator, partial curve, poor fit]",
Cc1ccccc1OCCCn1c(=O)sc2ccccc21,"inconclusive [activator, single point]",
